The supplement of paper PMC8728848
Some of the results follow.

Columns and labels:
Test in all cases: glycan array binding signal (z-score within array); higher = stronger binding
Conditions in all cases: glycan notation: IUPAC condensed, linker removed
[1] = target: Gal(b1-4)GlcNAc(b1-2)Man(a1-6)[Man(a1-3)]Man(b1-4)GlcNAc(b1-4)GlcNAc
Summary of the method: (§1)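 Glycan array data came from 3228 arrays in the Consortium for Functional Glycomics database, and only arrays with an available protein sequence were kept. Glycan names were put into IUPAC-condensed notation, and columns mapping to the same glycan were averaged. The binding signal is a within-array Z-score, averaged across arrays of one protein sequence run at different concentrations or buffers and across linkers. A negative Z-score can be read as non-binding.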

[2] = target: Gal(b1-4)GlcNAc(b1-2)[Gal(b1-4)GlcNAc(b1-4)]Man(a1-3)[Gal(b1-4)GlcNAc(b1-2)Man(a1-6)]Man(b1-4)GlcNAc(b1-4)GlcNAc
Summary of the method: as §1

[3] = target: Gal(b1-4)GlcNAc(b1-2)[Gal(b1-4)GlcNAc(b1-4)]Man(a1-3)[Gal(b1-4)GlcNAc(b1-2)[Gal(b1-4)GlcNAc(b1-6)]Man(a1-6)]Man(b1-4)GlcNAc(b1-4)GlcNAc
Summary of the method: as §1

[4] = target: Gal(b1-4)GlcNAc(b1-2)[Gal(b1-4)GlcNAc(b1-4)]Man(a1-3)[GlcNAc(b1-4)][Gal(b1-4)GlcNAc(b1-2)Man(a1-6)]Man(b1-4)GlcNAc(b1-4)GlcNAc
Summary of the method: as §1

[5] = target: Gal(b1-4)GlcNAc(b1-2)[Gal(b1-4)GlcNAc(b1-4)]Man(a1-3)[GlcNAc(b1-4)][Gal(b1-4)GlcNAc(b1-2)[Gal(b1-4)GlcNAc(b1-6)]Man(a1-6)]Man(b1-4)GlcNAc(b1-4)GlcNAc
Summary of the method: as §1

[6] = target: Gal(b1-4)GlcNAc(b1-2)[Gal(b1-4)GlcNAc(b1-6)]Man(a1-6)[Gal(b1-4)GlcNAc(b1-2)Man(a1-3)]Man(b1-4)GlcNAc(b1-4)GlcNAc
Summary of the method: as §1

[7] = target: Gal(b1-4)GlcNAc(b1-2)[Gal(b1-4)GlcNAc(b1-6)]Man(a1-6)[Gal(b1-4)GlcNAc(b1-2)Man(a1-3)]Man(b1-4)GlcNAc(b1-4)[Fuc(a1-6)]GlcNAc
Summary of the method: as §1

[8] = target: Gal(b1-4)GlcNAc(b1-2)[Gal(b1-4)GlcNAc(b1-6)]Man(a1-6)[GlcNAc(b1-4)][Gal(b1-4)GlcNAc(b1-2)Man(a1-3)]Man(b1-4)GlcNAc(b1-4)GlcNAc
Summary of the method: as §1

[9] = target: Gal(b1-4)GlcNAc(b1-2)[Gal(b1-4)GlcNAc(b1-6)]Man(a1-6)[GlcNAc(b1-4)][Gal(b1-4)GlcNAc(b1-2)[Gal(b1-4)GlcNAc(b1-4)]Man(a1-3)]Man(b1-4)GlcNAc(b1-4)[Fuc(a1-6)]GlcNAc
Summary of the method: as §1

[10] = target: Gal(b1-4)GlcNAc(b1-3)Gal(b1-3)GalNAc
Summary of the method: as §1

[11] = target: Gal(b1-4)GlcNAc(b1-3)Gal(b1-3)GlcNAc
Summary of the method: as §1

[12] = target: Gal(b1-4)GlcNAc(b1-3)Gal(b1-4)Glc
Summary of the method: as §1

[13] = target: Gal(b1-4)GlcNAc(b1-3)Gal(b1-4)GlcNAc
Summary of the method: as §1

[14] = target: Gal(b1-4)GlcNAc(b1-3)Gal(b1-4)GlcNAc(b1-2)Man(a1-3)[Gal(b1-4)GlcNAc(b1-3)Gal(b1-4)GlcNAc(b1-2)Man(a1-6)]Man(b1-4)GlcNAc(b1-4)GlcNAc
Summary of the method: as §1

[15] = target: Gal(b1-4)GlcNAc(b1-3)Gal(b1-4)GlcNAc(b1-2)Man(a1-3)[Gal(b1-4)GlcNAc(b1-3)Gal(b1-4)GlcNAc(b1-2)Man(a1-6)]Man(b1-4)GlcNAc(b1-4)[Fuc(a1-6)]GlcNAc
Summary of the method: as §1

[16] = target: Gal(b1-4)GlcNAc(b1-3)Gal(b1-4)GlcNAc(b1-2)[Gal(b1-4)GlcNAc(b1-3)Gal(b1-4)GlcNAc(b1-6)]Man(a1-6)[Gal(b1-4)GlcNAc(b1-3)Gal(b1-4)GlcNAc(b1-2)Man(a1-3)]Man(b1-4)GlcNAc(b1-4)GlcNAc
Summary of the method: as §1

[17] = target: Gal(b1-4)GlcNAc(b1-3)Gal(b1-4)GlcNAc(b1-2)[Gal(b1-4)GlcNAc(b1-3)Gal(b1-4)GlcNAc(b1-6)]Man(a1-6)[Gal(b1-4)GlcNAc(b1-3)Gal(b1-4)GlcNAc(b1-2)Man(a1-3)]Man(b1-4)GlcNAc(b1-4)[Fuc(a1-6)]GlcNAc
Summary of the method: as §1

[18] = target: Gal(b1-4)GlcNAc(b1-3)Gal(b1-4)GlcNAc(b1-3)Gal(b1-4)GlcNAc
Summary of the method: as §1

B1: B725 (Bifidobacterium sp) (protein)
chain: MNNTTRAVIATAAIGALLIPLAGCGNTTTSSGKTELTVWSWDASIDRAAKSFMKANPDITVKVSNVGSTEETYTALNNAAQAGSGLPDVTLIEYLAIPQFVHSDTLMDLSKVYNTAKLKDTFTPGTWNSVNINGGLYAMPADSGPMAYFYDKDVFDKAGISEPPTTWDEFYEDAKKIRATGSYITSDSGDAGLFNAMMWAMGGHAYKLNDDKLTINIAKDKGAQRFMDLWQKMRDEDLIDVHTKTWTDDWMKSLGDGSIASLISGAWMANNLLQGVPQATGKFRVALLPTIDGTPINGEYGGSGLAITKKIPDGKLDAAKKFVEYVTTNDEGIDARVSNGSFPATTKTLNQKDFLAKTTLRNTDGSDNEFFGGQKYNEIFSQAAKDVTGKWEFLPFEPYARSVYNDNMGSFFAGKTSFRTAADNWQKALKDYAKDQGFTVQ
glycan array binding signal (z-score) [1]: -0.226
glycan array binding signal (z-score) [2]: -0.23
glycan array binding signal (z-score) [3]: -0.22
glycan array binding signal (z-score) [4]: -0.222
glycan array binding signal (z-score) [5]: -0.211
glycan array binding signal (z-score) [6]: -0.177
glycan array binding signal (z-score) [7]: -0.192
glycan array binding signal (z-score) [8]: -0.208
glycan array binding signal (z-score) [9]: -0.229
glycan array binding signal (z-score) [10]: -0.188
glycan array binding signal (z-score) [11]: 2.17
glycan array binding signal (z-score) [12]: 6.34
glycan array binding signal (z-score) [13]: 3.29
glycan array binding signal (z-score) [14]: 1.67
glycan array binding signal (z-score) [15]: 2.27
glycan array binding signal (z-score) [16]: 0.832
glycan array binding signal (z-score) [17]: 2.27
glycan array binding signal (z-score) [18]: 6.94
